According to the supplement of paper PMC4967469:
IC50 is the fitted dose that halves viability relative to control wells, and lower means more sensitive; fits outside the tested doses are given as limits. AUC is the area under the same curve over the 256-fold range up to the top dose, as a fraction; values near 1 show little effect. An inferred top dose is not printed in the source and was worked back from the curve model. For some of these results: Drugs with an entry number were screened twice under separate entries, and the two screens often disagree.

Key:
AICAR = compound: NC(=O)c1ncn([C@@H]2O[C@H](CO)[C@@H](O)[C@H]2O)c1N [AICAR]; assay: Viability of human cancer cell lines after 72 h of drug (GDSC screen); conditions: top dose 2000 µM; top dose inferred
Description: (§1)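 Human cancer cell lines in 384-well plates, medium with 10% serum, drug for 72 h over a 256-fold dose range (nine 2-fold or five 4-fold steps up to the top dose). Adherent lines were fixed and stained with the nucleic acid dye Syto60, suspension lines read with resazurin; signal relative to control wells, capped at 0 and 100%. One two-parameter sigmoid per drug and line, fitted in a mixed model over all curves with the slope shared within a line.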

AKT inhibitor VIII = compound: O=c1[nH]c2ccccc2n1C1CCN(Cc2ccc(-c3[nH]c4cc5ncnc5cc4nc3-c3ccccc3)cc2)CC1 [AKT inhibitor VIII]; assay: as above; conditions: top dose inferred
Description: as §1

[1] = top dose 2.56 µM, screen: GDSC drug entry 171
[2] = top dose 10.24 µM, screen: GDSC drug entry 228

Cell Line | AUC (AICAR) | IC50 (AICAR) [µM] | AUC (AKT inhibitor VIII; [1]) | IC50 (AKT inhibitor VIII; [1]) [µM] | AUC (AKT inhibitor VIII; [2]) | IC50 (AKT inhibitor VIII; [2]) [µM]
DMS-53 (small cell lung carcinoma, adherent) | 0.986 | > 2000 | 0.976 | > 2.56 | 0.93 | > 10.2
DMS-79 (small cell lung carcinoma, suspension) | 0.955 | > 2000 | 0.959 | > 2.56 | 0.914 | > 10.2
DMS-273 (small cell lung carcinoma, adherent) | 0.926 | > 2000 | 0.849 | 2.11 | 0.956 | > 10.2
DND-41 (T-cell leukaemia, suspension) | 0.699 | 418 | 0.97 | > 2.56 | 0.52 | 0.721
DOHH-2 (B-cell lymphoma, suspension) | 0.812 | 1040 | 0.974 | > 2.56 |  | 
DOK (head and neck, adherent) | 0.69 | 565 | 0.789 | 1.83 | 0.883 | > 10.2
DOV13 (ovary, adherent) | 0.86 | > 2000 |  |  | 0.971 | > 10.2
DSH1 (bladder, adherent) | 0.889 | > 2000 | 0.777 | 0.984 | 0.743 | 3.07
DU-145 (prostate, adherent) | 0.897 | > 2000 | 0.947 | > 2.56 | 0.982 | > 10.2
DU-4475 (breast, suspension) | 0.81 | 823 | 0.956 | > 2.56 | 0.872 | 6.79
Daoy (medulloblastoma, adherent) | 0.852 | 1330 | 0.964 | > 2.56 | 0.937 | > 10.2
Daudi (Burkitt lymphoma, suspension) | 0.781 | 719 | 0.94 | > 2.56 | 0.899 | 10.1
Detroit562 (head and neck, adherent) | 0.824 | 1130 | 0.889 | > 2.56 | 0.923 | > 10.2
DoTc2-4510 (cervix, adherent) | 0.886 | > 2000 | 0.878 | 2.36 | 0.924 | > 10.2
EB2 (Burkitt lymphoma, suspension) | 0.954 | > 2000 | 0.938 | > 2.56 | 0.341 | 0.243
EB-3 (Burkitt lymphoma, suspension) | 0.969 | > 2000 | 0.952 | > 2.56 | 0.734 | 3.36
EBC-1 (lung squamous cell carcinoma, adherent) | 0.832 | 1510 | 0.972 | > 2.56 | 0.883 | > 10.2
EC-GI-10 (oesophagus, adherent) | 0.911 | > 2000 | 0.989 | > 2.56 | 0.989 | > 10.2
ECC10 (stomach, suspension) | 0.79 | 933 | 0.947 | > 2.56 | 0.863 | 9.51
EFM-19 (breast, adherent) | 0.667 | 466 | 0.637 | 0.464 | 0.585 | 1.23

Cell Line | AUC (AICAR) | IC50 (AICAR) [µM] | AUC (AKT inhibitor VIII; [1]) | IC50 (AKT inhibitor VIII; [1]) [µM] | AUC (AKT inhibitor VIII; [2]) | IC50 (AKT inhibitor VIII; [2]) [µM]
EFM-192A (breast, adherent) | 0.985 | > 2000 | 0.966 | > 2.56 | 0.804 | 5.8
EFO-21 (ovary, adherent) | 0.972 | > 2000 | 0.862 | > 2.56 | 0.869 | > 10.2
EFO-27 (ovary, adherent) | 0.847 | > 2000 | 0.946 | > 2.56 | 0.907 | > 10.2
EGI-1 (biliary tract, adherent) | 0.9 | > 2000 | 0.923 | > 2.56 | 0.954 | > 10.2
EHEB (lymphoid neoplasm, suspension) | 0.746 | 897 | 0.941 | > 2.56 |  | 
EJM (lymphoid neoplasm, semi-adherent) | 0.809 | 846 | 0.982 | > 2.56 | 0.851 | 5.99
EKVX (lung adenocarcinoma, adherent) | 0.883 | > 2000 | 0.88 | > 2.56 | 0.952 | > 10.2
EMC-BAC-1 (lung adenocarcinoma, adherent) | 0.781 | 956 |  |  | 0.77 | 4.42
EMC-BAC-2 (lung adenocarcinoma, adherent) | 0.972 | > 2000 |  |  | 0.923 | > 10.2
EN (endometrium, adherent) | 0.977 | > 2000 | 0.984 | > 2.56 | 0.831 | 9
EPLC-272H (lung squamous cell carcinoma, adherent) | 0.739 | 667 | 0.961 | > 2.56 | 0.823 | 7.09
ES1 (Ewing sarcoma, adherent) | 0.89 | > 2000 | 0.944 | > 2.56 | 0.5 | 0.639
ES5 (Ewing sarcoma, adherent) | 0.897 | > 2000 | 0.882 | > 2.56 | 0.497 | 0.629
ES6 (Ewing sarcoma, adherent) | 0.954 | > 2000 | 0.89 | > 2.56 | 0.646 | 1.8
ES7 (Ewing sarcoma, adherent) | 0.857 | 1690 | 0.777 | 1.06 | 0.494 | 0.617
ES-2 (ovary, adherent) | 0.839 | 1140 | 0.991 | > 2.56 | 0.915 | > 10.2
ESO26 (oesophagus, adherent) | 0.745 | 598 |  |  | 0.725 | 2.66
ESO51 (oesophagus, semi-adherent) | 0.771 | 1100 |  |  | 0.911 | > 10.2
ESS-1 (endometrium, adherent) | 0.877 | 1660 | 0.982 | > 2.56 | 0.828 | 5.45
ETK-1 (biliary tract, adherent) | 0.732 | 634 | 0.893 | > 2.56 | 0.921 | > 10.2
